The values below come from paper PMC5700166.

The list shows a part of the results, in another mix than the full data. The list includes weakly bound sequences.

What all share (assay): protein-binding microarray (PBM)
Settings in all cases: PBM: ~300 nM protein, 6 mM HEPES pH 7.8, 80 mM KCl, 0.5 mM EDTA, 0.5 mM EGTA, 6% glycerol, 35 ng/ul poly-dIdC, 1% milk, 1 h, room temperature; Ap Aiptasia and Nv Nematostella (sea anemones) / Co Capsaspora / Aq Amphimedon (sponge) / Dm Drosophila / Hu human; RHD is the Rel homology domain; high values mean tight binding; most listed sequences are background and not binding sites; double strand, one strand shown

Assay [1] addresses T1, GST-Nv-NF-kB (Cys allele) (UniProt E5G601).
T1 sequence: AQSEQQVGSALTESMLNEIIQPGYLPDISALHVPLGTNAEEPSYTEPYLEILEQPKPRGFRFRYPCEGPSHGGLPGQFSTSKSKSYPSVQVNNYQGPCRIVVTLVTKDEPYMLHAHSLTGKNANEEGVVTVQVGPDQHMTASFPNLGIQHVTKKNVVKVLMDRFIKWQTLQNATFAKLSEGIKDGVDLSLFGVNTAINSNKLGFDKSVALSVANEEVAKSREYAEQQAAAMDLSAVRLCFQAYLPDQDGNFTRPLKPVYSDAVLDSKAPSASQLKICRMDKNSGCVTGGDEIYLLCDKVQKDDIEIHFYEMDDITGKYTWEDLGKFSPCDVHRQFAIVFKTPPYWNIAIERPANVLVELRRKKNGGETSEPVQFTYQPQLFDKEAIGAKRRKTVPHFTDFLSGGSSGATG

Another assay addresses T2, GST-Co-NF-kB (UniProt F1ARL5).
T2 sequence: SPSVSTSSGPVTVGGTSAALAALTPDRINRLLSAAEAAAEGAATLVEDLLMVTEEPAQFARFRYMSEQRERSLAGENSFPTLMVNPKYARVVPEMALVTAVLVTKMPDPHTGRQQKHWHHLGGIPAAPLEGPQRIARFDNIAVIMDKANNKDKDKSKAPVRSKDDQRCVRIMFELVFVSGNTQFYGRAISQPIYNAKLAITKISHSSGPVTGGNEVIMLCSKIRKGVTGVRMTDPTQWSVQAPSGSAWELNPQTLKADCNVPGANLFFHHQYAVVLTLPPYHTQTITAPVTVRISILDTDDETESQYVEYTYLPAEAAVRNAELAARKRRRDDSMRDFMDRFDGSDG

The target in another assay is T3, GST-Dm-Relish (UniProt Q94527).
T3 sequence: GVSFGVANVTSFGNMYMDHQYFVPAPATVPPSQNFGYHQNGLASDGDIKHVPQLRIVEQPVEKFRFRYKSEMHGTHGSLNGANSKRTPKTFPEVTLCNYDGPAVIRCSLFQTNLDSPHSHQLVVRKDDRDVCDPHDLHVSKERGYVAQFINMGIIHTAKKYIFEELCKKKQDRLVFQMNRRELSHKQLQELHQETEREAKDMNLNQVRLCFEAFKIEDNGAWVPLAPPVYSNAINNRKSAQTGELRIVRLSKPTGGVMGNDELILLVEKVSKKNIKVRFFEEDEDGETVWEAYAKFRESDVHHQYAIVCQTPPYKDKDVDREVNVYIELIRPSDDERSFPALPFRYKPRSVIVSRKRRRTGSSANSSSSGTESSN

Another assay has as its target T4, GST-Aq-NF-kB (UniProt A9Y5G7).
T4 sequence: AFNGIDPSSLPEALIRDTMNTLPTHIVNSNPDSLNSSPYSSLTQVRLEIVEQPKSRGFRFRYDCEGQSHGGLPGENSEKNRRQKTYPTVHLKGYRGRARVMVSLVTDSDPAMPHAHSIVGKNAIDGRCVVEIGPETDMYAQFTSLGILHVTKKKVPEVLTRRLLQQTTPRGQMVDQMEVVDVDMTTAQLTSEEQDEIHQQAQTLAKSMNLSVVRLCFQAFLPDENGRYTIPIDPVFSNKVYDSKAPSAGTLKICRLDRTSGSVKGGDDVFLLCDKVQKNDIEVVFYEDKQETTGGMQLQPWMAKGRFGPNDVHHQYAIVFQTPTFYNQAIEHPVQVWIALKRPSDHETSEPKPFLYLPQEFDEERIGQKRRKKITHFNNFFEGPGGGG

As to “CCGATTAACATCAAGATTAGGGATGATGTTAATCGGGTCTTGATTCGCTTGACGCTGCTG”, the binding signal is 0.684 z-score in assay [1], 0.326 z-score in the assay with GST-Co-NF-kB, -0.672 z-score in the assay with GST-Dm-Relish and 0.848 z-score with GST-Aq-NF-kB.

As to “CCGATTAACATCAAACTCCCCCGTGATGTTAATCGGGTCTTGATTCGCTTGACGCTGCTG”, the binding signal was 5.44 z-score in assay [1], 7.66 z-score with GST-Co-NF-kB and 5.84 z-score with GST-Aq-NF-kB.

Take “CCGATTAACATCAGGGGACTACCTGATGTTAATCGGGTCTTGATTCGCTTGACGCTGCTG”: the binding signal in assay [1] turned out to be 5.88 z-score; in the assay with GST-Co-NF-kB, 2.47 z-score; in the assay with GST-Aq-NF-kB it was 7.36 z-score.

Regarding “CCGATTAACATCAAGGGGGAATATGATGTTAATCGGGTCTTGATTCGCTTGACGCTGCTG”, the results for the binding signal (in assay [1]; with GST-Co-NF-kB; with GST-Aq-NF-kB) were 8.35 z-score, 7.86 z-score and 6.45 z-score, respectively.

As for “CCGATTAACATCAGTATGGGAAATGATGTTAATCGGGTCTTGATTCGCTTGACGCTGCTG”, the figures for the binding signal (in assay [1]; in the assay with GST-Dm-Relish; with GST-Aq-NF-kB) were 2.39 z-score, 0.377 z-score and 1.79 z-score, respectively.

With “CCGATTAACATCAGGGGAAACACTGATGTTAATCGGGTCTTGATTCGCTTGACGCTGCTG”, the binding signal came out at 8.15 z-score in assay [1], 7.63 z-score with GST-Co-NF-kB, 9.02 z-score with GST-Dm-Relish and 7 z-score with GST-Aq-NF-kB.

With “CCGATTAACATCAAAAGAGTCCCTGATGTTAATCGGGTCTTGATTCGCTTGACGCTGCTG”, the binding signal was determined as 5.99 z-score in assay [1], 1.5 z-score with GST-Co-NF-kB, 5.32 z-score with GST-Dm-Relish and 5.91 z-score with GST-Aq-NF-kB.

As for “CCGATTAACATCAACTATCCCCCTGATGTTAATCGGGTCTTGATTCGCTTGACGCTGCTG”, the binding signal is 4.03 z-score in assay [1], 2.98 z-score with GST-Dm-Relish and 4.04 z-score with GST-Aq-NF-kB.

For “CCGATTAACATCACATCTTTCCCTGATGTTAATCGGGTCTTGATTCGCTTGACGCTGCTG”, the binding signal in assay [1] was found to be 3.96 z-score; in the assay with GST-Co-NF-kB, 3.84 z-score; with GST-Dm-Relish, 0.781 z-score; in the assay with GST-Aq-NF-kB, 4.25 z-score.

Consider “CCGATTAACATCAAGGGGTTCCCTGATGTTAATCGGGTCTTGATTCGCTTGACGCTGCTG”, for which the binding signal in assay [1] amounted to 3.32 z-score; with GST-Dm-Relish, 9.46 z-score; in the assay with GST-Aq-NF-kB it was 5.11 z-score.

“CCGATTAACATCAAGTCCCCCCATGATGTTAATCGGGTCTTGATTCGCTTGACGCTGCTG”: the binding signal in assay [1] stood at 4.07 z-score; with GST-Dm-Relish, 4.21 z-score; with GST-Aq-NF-kB, 4.39 z-score.

Regarding “CCGATTAACATCACTAAATCCCCTGATGTTAATCGGGTCTTGATTCGCTTGACGCTGCTG”, the binding signal in assay [1] turned out to be 7.06 z-score; with GST-Dm-Relish, 6.49 z-score; with GST-Aq-NF-kB it was 5.34 z-score.

Regarding “CCGATTAACATCACCCGCGCTCATGATGTTAATCGGGTCTTGATTCGCTTGACGCTGCTG”, the binding signal amounted to 0.692 z-score in assay [1], 0.663 z-score with GST-Co-NF-kB, 1.06 z-score with GST-Dm-Relish and 0.588 z-score with GST-Aq-NF-kB.

Regarding “CCGATTAACATCAATATATTCCCTGATGTTAATCGGGTCTTGATTCGCTTGACGCTGCTG”, the binding signal in assay [1] came out at 4.64 z-score; in the assay with GST-Dm-Relish, 2.1 z-score; in the assay with GST-Aq-NF-kB it was 3.52 z-score.

For “CCGATTAACATCAGCTAGTCCCTTGATGTTAATCGGGTCTTGATTCGCTTGACGCTGCTG”, the binding signal in assay [1] came to 3.63 z-score; with GST-Co-NF-kB, 0.223 z-score; with GST-Dm-Relish, 0.0367 z-score; with GST-Aq-NF-kB it was 3.06 z-score.

“CCGATTAACATCAATTTTTTCCCTGATGTTAATCGGGTCTTGATTCGCTTGACGCTGCTG”: the values for the binding signal (in assay [1]; in the assay with GST-Dm-Relish; with GST-Aq-NF-kB) were 5.88 z-score, 2.71 z-score and 4.16 z-score, respectively.

As for “CCGATTAACATCACTTTTCCCCCTGATGTTAATCGGGTCTTGATTCGCTTGACGCTGCTG”, the binding signal in assay [1] was 7.4 z-score; with GST-Co-NF-kB, 10.8 z-score; with GST-Dm-Relish it was 3.73 z-score; in the assay with GST-Aq-NF-kB, 5.27 z-score.

As for “CCGATTAACATCACGAATTCCCCTGATGTTAATCGGGTCTTGATTCGCTTGACGCTGCTG”, the binding signal in assay [1] came to 10.1 z-score; with GST-Co-NF-kB, 7.11 z-score; in the assay with GST-Dm-Relish, 6.96 z-score; with GST-Aq-NF-kB, 6.73 z-score.

As to “CCGATTAACATCAGGGGATATACTGATGTTAATCGGGTCTTGATTCGCTTGACGCTGCTG”, the binding signal in assay [1] was 4.91 z-score; with GST-Dm-Relish, 7.81 z-score; in the assay with GST-Aq-NF-kB, 4.48 z-score.

As to “CCGATTAACATCAGGGAATCAGATGATGTTAATCGGGTCTTGATTCGCTTGACGCTGCTG”, the figures for the binding signal (in assay [1]; in the assay with GST-Dm-Relish; with GST-Aq-NF-kB) were 1.61 z-score, 0.457 z-score and 1.84 z-score, respectively.

On to “CCGATTAACATCAGGGAGTACACTGATGTTAATCGGGTCTTGATTCGCTTGACGCTGCTG”, for which the binding signal in assay [1] was 0.904 z-score; with GST-Co-NF-kB, 1.03 z-score; in the assay with GST-Dm-Relish, 1.58 z-score; with GST-Aq-NF-kB it was 1.84 z-score.

Regarding “CCGATTAACATCATAAGGGGTGTTGATGTTAATCGGGTCTTGATTCGCTTGACGCTGCTG”, the figures for the binding signal (in assay [1]; in the assay with GST-Dm-Relish; with GST-Aq-NF-kB) were 0.956 z-score, 0.81 z-score and 1.91 z-score, respectively.

Consider “CCGATTAACATCAAAGGGGCTACTGATGTTAATCGGGTCTTGATTCGCTTGACGCTGCTG”, for which the binding signal stood at 3.08 z-score in assay [1], 0.895 z-score with GST-Co-NF-kB, 0.61 z-score in the assay with GST-Dm-Relish and 3.2 z-score with GST-Aq-NF-kB.

“CCGATTAACATCAGCTATTTCCCTGATGTTAATCGGGTCTTGATTCGCTTGACGCTGCTG”: the binding signal amounted to 3.01 z-score in assay [1], 0.198 z-score with GST-Dm-Relish and 3.31 z-score with GST-Aq-NF-kB.

With “CCGATTAACATCATGGGGCATGCTGATGTTAATCGGGTCTTGATTCGCTTGACGCTGCTG”, the binding signal was 0.431 z-score in assay [1], 0.141 z-score in the assay with GST-Co-NF-kB, -0.308 z-score with GST-Dm-Relish and 1.06 z-score with GST-Aq-NF-kB.
